# Reference: PubChem BioAssay AID938 (National Center for Advancing Translational Sciences (NCATS), 2007)
# The whole screen tested about 73,000 compounds, of which about 1,800 (2.5%) were called active. Inconclusive means that the source gave no clear call. Such entries were picked first, then a sample of the others. Calls come from the whole dose curve; as a rule, active = well fitted activation curve with a large enough effect; inconclusive = small, poorly fitted or top-dose-only effect; inactive = no such curve, though single readings can be large or run the other way. Potencies of inconclusive entries are left out as doubtful fits.
# Assay: qHTS Assay for Agonists of the Thyroid Stimulating Hormone Receptor: Activators of Intracellular cAMP Concentrations in Parental HEK 293; note: nearly all actives have a fitted effect of over 55% in size; for activation: % of control where 0% means no effect
# Conditions: parental HEK293 CNG cAMP sensor, membrane potential fluorescence; activation: at 57.1 µM (top of the series) unless noted
# Method in brief: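 Counterscreen for endogenous-receptor signalling: CNG-channel HEK 293 cells report cAMP rise by membrane depolarization. After 60 min dye equilibration with 100 uM RO 20-1724, compounds incubated 30 min before bottom-read fluorescence at 590 nm.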
# Potency is the fitted concentration of half-maximal effect; tags give direction and shape of the fitted curve.
Compound,Potency,activation
O=C(NC1CCCCCCC1)C1CCCN(S(=O)(=O)c2cnc[nH]2)C1 (configuration not stated),"inconclusive [activator, single point]",
CN(C)C=NC(=O)/C(C#N)=C1\CCc2ccccc2N1,,inactive: 1.49%
CCn1cnc2scc(-c3ccccc3)c2c1=O,"inconclusive [activator, partial curve]",
CCN1CCN(CCCNC(=O)Cn2cc3c(n2)CCCC3)CC1,"inconclusive [activator, full curve, poor fit]",
CCCOC(=O)c1c(-c2ccccc2)nc(CC)c(C(=O)SCC)c1CCC,"inconclusive [activator, single point]",
CC(C)(C)N1C(=O)[C@H]2[C@H]3[C@H](O)[C@H](O)C/C(=N/NC(=O)OCc4ccccc4)[C@H]3CC[C@@H]2C1=O,,inactive: -2.87% [at 11.4 µM]
CCOC(=O)C1CCN(S(=O)(=O)c2cccc3nonc23)CC1,,inactive: 9.32%
CCOC(=O)c1[nH]c(C)c(C(=O)N(CC)CC)c1C,"inconclusive [activator, single point]",
CC1=C2C(=O)OC(c3ccoc3)C2(C)CCC1 (configuration not stated),"inconclusive [activator, single point]",
O=C(c1ccccc1C(=O)N1CCN(c2ccccc2)CC1)N1CCN(c2ccccc2)CC1,"inconclusive [activator, partial curve]",
CC1CCN(C(=O)c2cc(-c3ccc(Cl)c(Cl)c3)on2)CC1,"inconclusive [activator, partial curve]",
COC(=O)NC(CC(C)=O)c1ccccc1 (configuration not stated),,inactive: 1.69% [at 11.4 µM]
CCOc1ccc2oc(-c3ccccc3)c(C(=O)N3CCN(C)CC3)c2c1,"inconclusive [activator, full curve, poor fit]",
CN1C(=O)C(=C2CCCCCC2)SC1=S,"inconclusive [activator, partial curve, poor fit]",
Oc1ccccc1Cn1c(-c2ccccc2O)nc2ccccc21,,inactive: -13.1%
Cc1cccc(-n2nc3c(c2NC(=O)c2ccc(Br)o2)CSC3)c1C,"inconclusive [activator, partial curve]",
Cc1ccc(CN2C(=O)C(C)(C)Oc3ccc(C(=O)N4CCCCC4)cc32)cc1,active: 25.1 µM,
O=C(CN1CCC(NC(=O)Nc2ccccc2-c2ccccc2)CC1)NCc1ccco1,"inconclusive [activator, single point]",
COc1ccccc1CNc1ncnc2ccc(-c3ccc4c(c3)OCO4)cc12,"inconclusive [activator, partial curve]",
Cc1cc(NC(=O)CSc2nc(C(C)C)nc3c2c(=O)n(C)c(=O)n3C)no1,"inconclusive [activator, single point]",
CCOc1ccc(S(=O)(=O)n2nc(C)cc2C)c2ccccc12,"inconclusive [activator, single point]",
Cc1c(/C=N/n2cnnc2)c2ccccc2n1C,"inconclusive [activator, single point]",
CC1=C(C(=O)OC(C)C)C(c2cccs2)C2=C(CCCC2=O)N1 (configuration not stated),"inconclusive [activator, single point]",
COc1ccc(COC2OC[C@]3(C)[C@H]4C5=C(CN3C(=O)OC(C)(C)C)[C@H](C)C(CO)C(CO)C5CC[C@@H]24)cc1 (some centres not stated),,inactive: -2.85%

Compound,Potency,activation
Cc1cc(C)nc(Nc2nc3ccccc3[nH]2)n1,,inactive: 17.2%
O=C(NC1c2ccccc2-c2ccccc21)c1ccco1,"inconclusive [activator, partial curve]",
CC(C)C(=O)N1CCN(C2=NS(=O)(=O)c3ccccc32)CC1,"inconclusive [activator, single point]",
CCN(CC)S(=O)(=O)c1ccc(Oc2cccc(C(C)=O)c2)nc1,,inactive: 23.1%
C=CCNc1nc2c(c(=O)n(C)c(=O)n2C)n1CCCCCC,"inconclusive [activator, partial curve]",
Cc1nc2sc3c(c2c(=O)n1/N=C/c1ccco1)CCCC3,active: 25.1 µM,
COc1cccc(NC(=O)N(CCCN2CCOCC2)C(C)c2cc3cccc(OC)c3o2)c1 (configuration not stated),"inconclusive [activator, single point]",
COC(=O)c1ccc(C(/C=C/[C@@H](C)C(=O)N(C)Cc2ccccc2)NC(=O)OCc2ccccc2)cc1 (some centres not stated),"inconclusive [activator, partial curve]",
CCn1cc(C2=NOC(C(=O)O)C2)c(C)n1 (configuration not stated),,inactive: 17.3%
O=C(Nc1nc(-c2ccco2)c(-c2ccco2)s1)C1CC(=O)N(c2ccc3c(c2)OCCO3)C1 (configuration not stated),,inactive: 8.05%
CCCn1c(-c2ccc(F)cc2)nc2c(NCCN(C)C)nc(C)nc21,"inconclusive [activator, partial curve]",
COc1ccc(C(c2sc3ncnn3c2O)N2CC(C)OC(C)C2)cc1OC (configuration not stated),,inactive: 0.114%
CC(C)(C)c1cc(Cc2ccccc2)[nH]n1,"inconclusive [activator, full curve]",
COC(=O)c1ccc(COc2ccc3c(C)c(C)c(=O)oc3c2)o1,active: 3.98 µM,
CCn1c2ccccc2c2nnc(SCC(=O)c3ccccc3)nc21,,inactive: 5.55%
Cn1c(=O)c2c(nc(NCc3ccccc3)n2C)n(C)c1=O,"inconclusive [activator, single point]",
CC(=O)c1ccc(NC(=O)c2noc3c2CCCCC3)cc1,,inactive: -2.24%
O=C(Cc1ccccc1)N1CCCC(c2nc(-c3cccs3)no2)C1 (configuration not stated),"inconclusive [activator, single point]",
CCCCOc1ccc(OCCCN2CCOCC2)cc1,,inactive: 5.43% [at 25.6 µM]
O=C(Nc1nc2ccc(S(=O)(=O)N3CCCC3)cc2s1)c1cccs1,"inconclusive [activator, single point]",
Cc1ccc(-c2nnc(CSc3nc4cc5c(cc4cc3C)OCO5)o2)cc1,"inconclusive [activator, full curve]",
COc1cc2ccc(=O)oc2c(O)c1OCC=C(C)C,inactive,
N[C@H](Cc1cc(I)c(Oc2ccc(O)c(I)c2)c(I)c1)C(=O)O,"inconclusive [activator, single point]",
COc1ccc(Nc2nc(N3CCCC3)nc3ccccc23)c(OC)c1,"inconclusive [activator, partial curve]",

Compound,Potency,activation
CCc1nc2ccc(C(=O)NCc3ccco3)cc2nc1CC,"inconclusive [activator, single point]",
COc1ccc(CCNc2ncnc3[nH]ncc23)cc1OC,"inconclusive [activator, single point]",
O=C1CCN(S(=O)(=O)c2ccccc2)C2CCCCC12 (configuration not stated),"inconclusive [activator, partial curve]",
Cc1ccc(-n2c(SCC(=O)NCc3cccs3)nnc2-c2ccoc2C)cc1,"inconclusive [activator, single point]",
CCCOc1ccc2oc(=O)c3c(c2c1)CCCN3C(=O)CN(C)Cc1ccccc1,"inconclusive [activator, single point]",
CN(Cc1ccccc1)C(=O)C1CCN(Cc2ccc(F)cc2)CC1,,inactive: 14.6%
O=C(O)/C(=C\c1ccccc1)Cc1ccccc1,,inactive: 14.9% [at 11.4 µM]
CCCCOC(=O)c1[nH]c2c(c1C)C(=O)CC(c1cc(OC)c(OC)c(OC)c1)C2 (configuration not stated),"inconclusive [activator, full curve]",
CCOC(=O)c1ccccc1NC(=O)CN1CCC(n2nnc3cc(F)ccc32)CC1,"inconclusive [activator, partial curve, poor fit]",
COC(=O)N1CCC2(CCCN(C(=O)Nc3ccc(OC)cc3)C2)CC1,,inactive: -9.58%
O=C(NCCO)c1ccc(Cl)cc1,,inactive: 15.1% [at 11.4 µM]
COc1ccccc1-c1cc(C(=O)N2CCc3ccccc3C2)no1,,inactive: 22.8%
CCCCN(CC)S(=O)(=O)c1ccc(C(=O)Nc2nnc(-c3ccccc3Cl)o2)cc1,"inconclusive [activator, full curve, poor fit]",
O=C(CSC1=Nc2ccccc2C2=NC(CC(=O)NC3CCCCC3)C(=O)N12)NCc1ccco1 (configuration not stated),"inconclusive [activator, single point]",
COc1cccc2c(=O)n(CC(=O)NC3CCCC3)ccc12,,inactive: 1.23%
COc1ccc(Cc2nnc(Nc3ccc(C)cc3C)[nH]c2=O)cc1,"inconclusive [activator, full curve, poor fit]",
O=C(O)c1ccc(NS(=O)(=O)c2ccsc2C(=O)O)c(O)c1,,inactive: 15.3%
COc1ccc(Oc2ncc3nc(-c4ccc(F)cc4)c(=O)n(CCC#N)c3n2)cc1,,inactive: -16.5%
Cc1c(NC2=C(Cl)C(=O)N(c3ccccc3)C2=O)c(=O)n(-c2ccccc2)n1C,"inconclusive [activator, partial curve]",
c1cnc(N2CCN(Cc3c[nH]c4ccccc34)CC2)nc1,"inconclusive [activator, partial curve]",
CCC(c1nnnn1CCc1ccccc1)N(Cc1ccco1)Cc1cc2c(C)ccc(C)c2[nH]c1=O (configuration not stated),"inconclusive [activator, full curve, poor fit]",
O=c1c(-c2ccc(Cl)cc2)nc2cnc(N3CCOCC3)nc2n1Cc1ccc(F)cc1,,inactive: 23.2%
CCCn1c(C)nc2c(NCCCN(CCO)CCO)nc(C)nc21,,inactive: 6.89%
O=C(NCCO)c1ccc(Cc2nc3ccccc3[nH]2)cc1,,inactive: -5.28%
